Test results: patent US20250163129A1 (IMMUNOS THERAPEUTICS, published 2025)
Changes are numbered by the printed parent chain. In names and notes the source's numbering stands. Values belong to the binder of their own block, whether it stands above or below them.

Target: T1, LILRB2, c-terminally biotinylated (BPS Bioscience #100335) (UniProt Q8N423 22-458, limits assumed, C-terminal biotin)
T1 construct: Bought reagent immobilised on streptavidin plates
Test: ELISA, biotinylated LILRB2 on streptavidin plate, fusion protein titrated, APC anti-human IgG detection

T1 sequence (Q8N423 22-458 limits assumed): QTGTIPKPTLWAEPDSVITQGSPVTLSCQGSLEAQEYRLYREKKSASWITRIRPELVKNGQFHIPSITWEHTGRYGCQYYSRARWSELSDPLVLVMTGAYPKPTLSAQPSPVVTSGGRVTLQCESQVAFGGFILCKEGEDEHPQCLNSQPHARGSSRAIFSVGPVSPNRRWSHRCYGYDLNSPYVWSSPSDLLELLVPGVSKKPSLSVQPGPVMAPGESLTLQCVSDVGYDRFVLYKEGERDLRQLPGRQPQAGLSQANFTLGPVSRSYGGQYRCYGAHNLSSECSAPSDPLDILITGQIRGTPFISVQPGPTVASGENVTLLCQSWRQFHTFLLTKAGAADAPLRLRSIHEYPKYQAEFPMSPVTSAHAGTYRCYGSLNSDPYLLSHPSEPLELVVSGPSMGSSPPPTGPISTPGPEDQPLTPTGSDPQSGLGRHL

EC50: 21 nM
B1: wildtype HLA-B57 IgG4 Fc fusion protein (dimer) lacking β2m (Fc fusion)
MHC heavy: GSHSMRYFYTAMSRPGRGEPRFIAVGYVDDTQFVRFDSDAASPRMAPRAPWIEQEGPEYWDGETRNMKASAQTYRENLRIALRYYNQSEAGSHIIQVMYGCDVGPDGRLLRGHDQSAYDGKDYIALNEDLSSWTAADTAAQITQRKWEAARVAEQLRAYLEGLCVEWLRRYLENGKETLQRADPPKTHVTHHPISDHEATLRCWALGFYPAEITLTWQRDGEDQTQDTELVETRPAGDRTFQKWAAVVVPSGEEQRYTCHVQHEGLPKPLTLRWEPSSQSGGGGSGGGGS[human IgG4 Fc with S228P (EU numbers) cut from this listing]
notes: also called β2m-free HLA-B57; non-β2m-associated HLA-B57 fusion protein

EC50: 8.3 nM
B2: HLA-B57(A46E/V97R) IgG4 Fc fusion protein (dimer) lacking β2m (Fc fusion)
MHC heavy: B1 MHC heavy with A46E, V97R
notes: β2m was removed by size exclusion chromatography under acidic conditions; also called non-β2m-associated HLA-B57^(A46E/V97R) fusion protein; variant HLA-B57 fusion protein
